Assay [1] deals with T1, CSL627 (recombinant Factor VIII, rVIII-SingleChain) (human, UniProt P00451 20-2351).
T1 construct: the tie is indirect; also called FVIII; CSL627-rVIII-SingleChain
T1 sequence: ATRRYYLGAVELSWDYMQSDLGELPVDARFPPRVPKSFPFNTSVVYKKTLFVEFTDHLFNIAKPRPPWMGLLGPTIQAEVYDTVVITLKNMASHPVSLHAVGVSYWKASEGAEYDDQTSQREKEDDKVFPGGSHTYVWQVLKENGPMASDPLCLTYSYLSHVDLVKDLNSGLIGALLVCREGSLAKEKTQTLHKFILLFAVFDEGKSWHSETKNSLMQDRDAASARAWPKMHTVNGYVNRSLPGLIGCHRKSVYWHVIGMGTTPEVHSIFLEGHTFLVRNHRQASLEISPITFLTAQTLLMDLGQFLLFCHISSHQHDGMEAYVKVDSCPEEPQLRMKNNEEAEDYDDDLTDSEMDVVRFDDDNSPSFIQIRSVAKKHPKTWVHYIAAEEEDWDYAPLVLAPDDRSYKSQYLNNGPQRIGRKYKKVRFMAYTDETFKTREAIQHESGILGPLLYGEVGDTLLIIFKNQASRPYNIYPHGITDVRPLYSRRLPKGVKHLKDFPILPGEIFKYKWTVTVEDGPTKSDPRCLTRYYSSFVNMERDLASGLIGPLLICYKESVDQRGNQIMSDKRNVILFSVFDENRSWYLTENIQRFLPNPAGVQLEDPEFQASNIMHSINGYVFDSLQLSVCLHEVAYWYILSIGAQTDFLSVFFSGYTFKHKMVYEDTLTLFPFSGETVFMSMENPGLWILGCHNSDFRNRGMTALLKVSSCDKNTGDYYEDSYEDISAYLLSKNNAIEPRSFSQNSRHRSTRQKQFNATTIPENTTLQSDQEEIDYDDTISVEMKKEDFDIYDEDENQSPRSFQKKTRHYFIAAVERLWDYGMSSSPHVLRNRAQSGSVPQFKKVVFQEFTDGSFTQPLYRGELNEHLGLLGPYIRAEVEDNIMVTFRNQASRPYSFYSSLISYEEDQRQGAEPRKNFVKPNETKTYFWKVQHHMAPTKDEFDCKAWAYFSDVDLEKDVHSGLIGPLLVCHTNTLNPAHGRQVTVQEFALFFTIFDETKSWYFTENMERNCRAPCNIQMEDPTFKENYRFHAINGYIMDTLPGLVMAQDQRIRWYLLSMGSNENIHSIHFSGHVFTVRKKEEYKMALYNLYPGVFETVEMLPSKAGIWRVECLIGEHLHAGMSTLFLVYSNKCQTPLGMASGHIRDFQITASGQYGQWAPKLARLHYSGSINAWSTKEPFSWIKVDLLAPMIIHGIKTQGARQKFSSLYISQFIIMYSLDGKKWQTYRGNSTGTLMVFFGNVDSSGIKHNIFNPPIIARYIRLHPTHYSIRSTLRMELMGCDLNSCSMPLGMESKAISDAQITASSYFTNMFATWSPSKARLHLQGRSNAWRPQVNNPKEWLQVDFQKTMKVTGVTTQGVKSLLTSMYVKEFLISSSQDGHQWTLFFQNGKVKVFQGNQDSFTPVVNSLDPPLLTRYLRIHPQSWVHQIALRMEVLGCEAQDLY
Nature of the assay: SPR screen at pH 7; D′D3-HSA from culture supernatant captured on anti-HSA antibody, Factor VIII injected. The method, then:
Mouse anti-HSA antibody was immobilized on a CMS chip using standard NHS/EDC coupling chemistry. Typically, the immobilization level was about 14,000 RU. Each mutant of vWF-HSA was captured on a single spot in each flow cell for 2 minutes at various concentrations ranging from 0.1-1 μg/ml. Capture levels ranged from 100-200 RU. An adjacent spot in which anti-HSA was immobilized, but no vWF-HSA captured was used as a reference. Capture was performed every cycle, before FVIII binding analysis.
An initial experiment was set up at neutral pH to screen a series of mutations for the top affinity and off rate improved vWF-HSA mutants. […]
Throughout all experiments buffer blanks were also injected over all captured proteins. The association and dissociation of Factor VIII was monitored for 3 minutes respectively during the “screening” experiment. The association of CSL627 was monitored for 5 minutes and dissociation was monitored for 20 and 60 minutes during the “detailed kinetic analysis” experiments at neutral pH. At pH 5.5 the association and dissociation of Factor VIII was monitored for various time frames that best suited the interaction.

Assay [2] addresses T1, CSL627 (recombinant Factor VIII, …). The assay can be described thus: SPR detailed kinetics at pH 7, 37 C; purified dimer from the single D1D2D′D3-HSA construct captured on anti-HSA antibody, CSL627 injected; 1:1 fit with mass transport. The method, then: (§1) Mouse anti-HSA antibody was immobilized on a CMS chip using standard NHS/EDC coupling chemistry. Typically, the immobilization level was about 14,000 RU. Each Dimer mutant of D′D3-HSA was captured on a single spot in each flow cell for 2 minutes at various concentrations ranging from 0.2-0.7 μg/ml. Capture levels ranged from 50-250 RU. An adjacent spot in which anti-HSA was immobilized, but no D′D3-HSA captured was used as a reference. Capture was performed every cycle, before FVIII (CSL627) binding analysis.
(§2) CSL627 was injected at random and in duplicate over all spots in all flow cells. […] The association was monitored for 5 minutes, while the dissociation was monitored for 20 minutes as well as for 1 hour at the 1 nM concentration. Buffer blanks were also injected. At pH5.5 CSL627 was injected at various concentrations and time frames that best suited the interaction taking place.
(§3) After the dissociation period the surface was regenerated with a 45 second injection of 25 mM Glycine pH2.6. Running buffer throughout was 10 mM HEPES, 150 mM NaCl, 10 mM Na Citrate, 2.5 mM CaCl2, 0.1% BSA, pH7.3 and pH5.5, while the flow rate was 30 μl/min. Each interaction was measured 4 times (n=4) at 37° C.

Assay [3] shares this target. Nature of the assay: SPR detailed kinetics at pH 5.5, 37 C; purified dimer from the single D1D2D′D3-HSA construct captured on anti-HSA antibody, CSL627 injected; 1:1 fit with mass transport. How it is done:
as §1, §2, §3

B1: vWF D′D3-HSA dimer K912E, T1088S (other)
chain: SLSCRPPMVKLVCPADNLRAEGLECTKTCQNYDLECMSMGCVSGCLCPPGMVRHENRCVALERCPCFHQGKEYAPGETVKIGCNTCVCRDRKWNCTDHVCDATCSTIGMAHYLTFDGLKYLFPGECQYVLVQDYCGSNPGTFRILVGNEGCSHPSVKCKKRVTILVEGGEIELFDGEVNVKRPMKDETHFEVVESGRYIILLLGKALSVVWDRHLSISVVLKQTYQEKVCGLCGNFDGIQNNDLTSSNLQVEEDPVDFGNSWKVSSQCADTRKVPLDSSPATCHNNIMKQTMVDSSCRILTSDVFQDCNKLVDPEPYLDVCIYDSCSCESIGDCACFCDTIAAYAHVCAQHGKVVTWRTATLCPQSCEERNLRENGYECEWRYNSCAPACQVTCQHPEPLACPVQCVEGCHAHCPPGKILDELLQTCVDPEDCPVCEVAGRRFASGKKVTLNPSDPEHCQICHCDVVNLTCEACQEPGG[omitted - about 600 residues]
notes: Albumin fusion, dimer; tested from culture supernatant; not shown: glycine serine linker between VWF part and albumin
In the case of B1, in assay [1], the Kd came to 0.155 nM, the koff amounted to 0.0008 s⁻¹ and the kon was 5.17e+06 M⁻¹ s⁻¹.

B2: vWF D′D3-HSA dimer S764G, V1083A (other)
chain: GLSCRPPMVKLVCPADNLRAEGLECTKTCQNYDLECMSMGCVSGCLCPPGMVRHENRCVALERCPCFHQGKEYAPGETVKIGCNTCVCRDRKWNCTDHVCDATCSTIGMAHYLTFDGLKYLFPGECQYVLVQDYCGSNPGTFRILVGNKGCSHPSVKCKKRVTILVEGGEIELFDGEVNVKRPMKDETHFEVVESGRYIILLLGKALSVVWDRHLSISVVLKQTYQEKVCGLCGNFDGIQNNDLTSSNLQVEEDPVDFGNSWKVSSQCADTRKVPLDSSPATCHNNIMKQTMVDSSCRILTSDVFQDCNKLVDPEPYLDACIYDTCSCESIGDCACFCDTIAAYAHVCAQHGKVVTWRTATLCPQSCEERNLRENGYECEWRYNSCAPACQVTCQHPEPLACPVQCVEGCHAHCPPGKILDELLQTCVDPEDCPVCEVAGRRFASGKKVTLNPSDPEHCQICHCDVVNLTCEACQEPGG[omitted - about 600 residues]
notes: not shown: glycine serine linker between VWF part and albumin
Consider B2, for which, in assay [2], the Kd amounted to 0.019 nM, the koff was determined as 0.000359 s⁻¹ and the kon was 1.89e+07 M⁻¹ s⁻¹. Besides, in assay [3], the Kd was 82.4 nM, the koff is 0.0744 s⁻¹ and the kon came to 908000 M⁻¹ s⁻¹.

B3: vWF D′D3-HSA dimer S764E, V1083A (other)
chain: ELSCRPPMVKLVCPADNLRAEGLECTKTCQNYDLECMSMGCVSGCLCPPGMVRHENRCVALERCPCFHQGKEYAPGETVKIGCNTCVCRDRKWNCTDHVCDATCSTIGMAHYLTFDGLKYLFPGECQYVLVQDYCGSNPGTFRILVGNKGCSHPSVKCKKRVTILVEGGEIELFDGEVNVKRPMKDETHFEVVESGRYIILLLGKALSVVWDRHLSISVVLKQTYQEKVCGLCGNFDGIQNNDLTSSNLQVEEDPVDFGNSWKVSSQCADTRKVPLDSSPATCHNNIMKQTMVDSSCRILTSDVFQDCNKLVDPEPYLDACIYDTCSCESIGDCACFCDTIAAYAHVCAQHGKVVTWRTATLCPQSCEERNLRENGYECEWRYNSCAPACQVTCQHPEPLACPVQCVEGCHAHCPPGKILDELLQTCVDPEDCPVCEVAGRRFASGKKVTLNPSDPEHCQICHCDVVNLTCEACQEPGG[omitted - about 600 residues]
notes: as for B2
Turning to B3, in assay [2], the Kd was 0.0116 nM, the off-rate constant (koff) came out at 0.000207 s⁻¹ and the kon stood at 1.77e+07 M⁻¹ s⁻¹. Further, in assay [3], the Kd was found to be 8.32 nM, the koff was 0.0207 s⁻¹ and the kon worked out at 2.5e+06 M⁻¹ s⁻¹.

B4: vWF D′D3-HSA dimer N1011S, V1083A, K1181E (other)
chain: SLSCRPPMVKLVCPADNLRAEGLECTKTCQNYDLECMSMGCVSGCLCPPGMVRHENRCVALERCPCFHQGKEYAPGETVKIGCNTCVCRDRKWNCTDHVCDATCSTIGMAHYLTFDGLKYLFPGECQYVLVQDYCGSNPGTFRILVGNKGCSHPSVKCKKRVTILVEGGEIELFDGEVNVKRPMKDETHFEVVESGRYIILLLGKALSVVWDRHLSISVVLKQTYQEKVCGLCGNFDGIQNNDLTSSSLQVEEDPVDFGNSWKVSSQCADTRKVPLDSSPATCHNNIMKQTMVDSSCRILTSDVFQDCNKLVDPEPYLDACIYDTCSCESIGDCACFCDTIAAYAHVCAQHGKVVTWRTATLCPQSCEERNLRENGYECEWRYNSCAPACQVTCQHPEPLACPVQCVEGCHAHCPPGEILDELLQTCVDPEDCPVCEVAGRRFASGKKVTLNPSDPEHCQICHCDVVNLTCEACQEPGG[omitted - about 600 residues]
notes: as for B1
Regarding B4, in assay [1], the Kd came out at 0.081 nM, the koff was 0.00043 s⁻¹ and the kon came out at 5.31e+06 M⁻¹ s⁻¹.

B5: vWF D′D3-HSA dimer V805A, Q1158L (other)
chain: SLSCRPPMVKLVCPADNLRAEGLECTKTCQNYDLECMSMGCASGCLCPPGMVRHENRCVALERCPCFHQGKEYAPGETVKIGCNTCVCRDRKWNCTDHVCDATCSTIGMAHYLTFDGLKYLFPGECQYVLVQDYCGSNPGTFRILVGNKGCSHPSVKCKKRVTILVEGGEIELFDGEVNVKRPMKDETHFEVVESGRYIILLLGKALSVVWDRHLSISVVLKQTYQEKVCGLCGNFDGIQNNDLTSSNLQVEEDPVDFGNSWKVSSQCADTRKVPLDSSPATCHNNIMKQTMVDSSCRILTSDVFQDCNKLVDPEPYLDVCIYDTCSCESIGDCACFCDTIAAYAHVCAQHGKVVTWRTATLCPQSCEERNLRENGYECEWRYNSCAPACQVTCLHPEPLACPVQCVEGCHAHCPPGKILDELLQTCVDPEDCPVCEVAGRRFASGKKVTLNPSDPEHCQICHCDVVNLTCEACQEPGG[omitted - about 600 residues]
notes: as for B1
With B5, in assay [1], the Kd was 0.149 nM, the koff was 0.000632 s⁻¹ and the on-rate (kon) was determined as 4.26e+06 M⁻¹ s⁻¹.

For the origin of these results see patent US20190016784A1 (CSL BEHRING LENGNAU, published 2019).
